{"source": "the supplement of paper PMC8728848", "binders": {"B1": {"name": "Cohesin-marm-DC-ASGPR-CRD (protein)", "chain": "LDITSHHHHHHDDLDAVRIKVDTVNAKPGDTVRIPVRFSGIPSKGIANCDFVYSYDPNVLEIIEIEPGDIIVDPNPDKSFDTAVYPDRKIIVFLFAEDSGTGAYAITKDGVFATIVAKVKEGAPNGLSVIKFVEVGGFANNDLVEQKTQFFDGGVNVGDTTEPATPTTPVTTPTTTDDLDAASCPINWVEHQGSCYWFSRSGKTWPEAERYCQLENTHLVVINSREEQNFVQAHLGSAYTWMGLSDPEGVWKWVDGTDYSSGFQNWKPGQPDDWQGHGLGGGEDCAHFHPDGRWNDDVCQRSYHWVCEAGLTQASQDSH"}}, "assay_in_all_cases": "glycan array binding signal (z-score within array); higher = stronger binding", "details_in_all_cases": "glycan notation: IUPAC condensed, linker removed", "key": {"Gal3S6S(b1-4)GlcNAc": {"target": "Gal3S6S(b1-4)GlcNAc", "method_in_brief": "(§1)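 From the Consortium for Functional Glycomics database, 3228 arrays were curated, keeping only those whose protein sequence was available. Binding is given as a within-array Z-score averaged across arrays sharing a protein sequence and across linkers. Negative Z-scores can be read as non-binding.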"}, "Gal3S6S(b1-4)GlcNAc6S": {"target": "Gal3S6S(b1-4)GlcNAc6S", "method_in_brief": "as §1"}, "Gal4S(b1-4)GlcNAc": {"target": "Gal4S(b1-4)GlcNAc", "method_in_brief": "as §1"}, "Gal4S6S(b1-4)GlcNAc": {"target": "Gal4S6S(b1-4)GlcNAc", "method_in_brief": "as §1"}, "Gal6P(b1-4)GlcNAc": {"target": "Gal6P(b1-4)GlcNAc", "method_in_brief": "as §1"}, "Gal6S(b1-3)GlcNAc": {"target": "Gal6S(b1-3)GlcNAc", "method_in_brief": "as §1"}, "Gal6S(b1-3)GlcNAc6S": {"target": "Gal6S(b1-3)GlcNAc6S", "method_in_brief": "as §1"}, "Gal6S(b1-4)Glc": {"target": "Gal6S(b1-4)Glc", "method_in_brief": "as §1"}, "Gal6S(b1-4)Glc6S": {"target": "Gal6S(b1-4)Glc6S", "method_in_brief": "as §1"}, "Gal6S(b1-4)GlcNAc": {"target": "Gal6S(b1-4)GlcNAc", "method_in_brief": "as §1"}, "Gal6S(b1-4)GlcNAc6S": {"target": "Gal6S(b1-4)GlcNAc6S", "method_in_brief": "as §1"}, "GalNAc(a1-3)Gal": {"target": "GalNAc(a1-3)Gal", "method_in_brief": "as §1"}, "GalNAc(a1-3)GalNAc": {"target": "GalNAc(a1-3)GalNAc", "method_in_brief": "as §1"}, "[1]": {"target": "GalNAc(a1-3)GalNAc(b1-3)Gal(a1-4)Gal(b1-4)Glc", "method_in_brief": "as §1"}, "[2]": {"target": "GalNAc(a1-3)GalNAc(b1-3)Gal(a1-4)Gal(b1-4)GlcNAc", "method_in_brief": "as §1"}, "GalNAc(b1-3)Gal": {"target": "GalNAc(b1-3)Gal", "method_in_brief": "as §1"}, "[3]": {"target": "GalNAc(b1-3)Gal(a1-4)Gal(b1-4)GlcNAc", "method_in_brief": "as §1"}, "[4]": {"target": "GalNAc(b1-3)Gal(a1-4)Gal(b1-4)GlcNAc(b1-3)Gal(b1-4)Glc", "method_in_brief": "as §1"}, "[5]": {"target": "GalNAc(b1-3)Gal(a1-6)Gal(b1-4)Glc", "method_in_brief": "as §1"}, "GalNAc(b1-3)GalNAc": {"target": "GalNAc(b1-3)GalNAc", "method_in_brief": "as §1"}, "GalNAc(b1-3)GlcNAc": {"target": "GalNAc(b1-3)GlcNAc", "method_in_brief": "as §1"}, "GalNAc(b1-4)Gal(b1-4)Glc": {"target": "GalNAc(b1-4)Gal(b1-4)Glc", "method_in_brief": "as §1"}, "GalNAc(b1-4)GlcNAc": {"target": "GalNAc(b1-4)GlcNAc", "method_in_brief": "as §1"}, "[6]": {"target": "GalNAc(b1-4)GlcNAc(b1-2)Man", "method_in_brief": "as §1"}, "[7]": {"target": "GalNAc(b1-4)GlcNAc(b1-2)Man(a1-3)[GalNAc(b1-4)GlcNAc(b1-2)Man(a1-6)]Man(b1-4)GlcNAc(b1-4)GlcNAc", "method_in_brief": "as §1"}, "[8]": {"target": "GalNAc(b1-4)GlcNAc(b1-3)GalNAc(b1-4)GlcNAc", "method_in_brief": "as §1"}, "GalNAc(b1-4)GlcNAc6S": {"target": "GalNAc(b1-4)GlcNAc6S", "method_in_brief": "as §1"}, "GalNAc(b1-6)GalNAc": {"target": "GalNAc(b1-6)GalNAc", "method_in_brief": "as §1"}, "GalNAc3S(b1-4)GlcNAc": {"target": "GalNAc3S(b1-4)GlcNAc", "method_in_brief": "as §1"}, "GalNAc3S(b1-4)GlcNAc3S": {"target": "GalNAc3S(b1-4)GlcNAc3S", "method_in_brief": "as §1"}, "[9]": {"target": "GalNAc3S(b1-4)[Fuc(a1-3)]GlcNAc", "method_in_brief": "as §1"}, "GalNAc4S6S(b1-4)GlcNAc": {"target": "GalNAc4S6S(b1-4)GlcNAc", "method_in_brief": "as §1"}, "GalNAc6S(b1-4)GlcNAc": {"target": "GalNAc6S(b1-4)GlcNAc", "method_in_brief": "as §1"}, "Glc(a1-4)Glc": {"target": "Glc(a1-4)Glc", "method_in_brief": "as §1"}, "[10]": {"target": "Glc(a1-4)Glc(a1-4)Glc(a1-4)Glc", "method_in_brief": "as §1"}, "Glc(a1-6)Glc(a1-6)Glc": {"target": "Glc(a1-6)Glc(a1-6)Glc", "method_in_brief": "as §1"}, "[11]": {"target": "Glc(a1-6)Glc(a1-6)Glc(a1-6)Glc", "method_in_brief": "as §1"}, "Glc(b1-4)Glc": {"target": "Glc(b1-4)Glc", "method_in_brief": "as §1"}}, "note": "Some of the results follow.", "data": [{"binder": "B1", "values": [{"measurement": "glycan array binding signal (z-score)", "setting": "Gal3S6S(b1-4)GlcNAc", "result": -0.378}, {"measurement": "glycan array binding signal (z-score)", "setting": "Gal3S6S(b1-4)GlcNAc6S", "result": -0.314}, {"measurement": "glycan array binding signal (z-score)", "setting": "Gal4S(b1-4)GlcNAc", "result": -0.444}, {"measurement": "glycan array binding signal (z-score)", "setting": "Gal4S6S(b1-4)GlcNAc", "result": -0.448}, {"measurement": "glycan array binding signal (z-score)", "setting": "Gal6P(b1-4)GlcNAc", "result": -0.452}, {"measurement": "glycan array binding signal (z-score)", "setting": "Gal6S(b1-3)GlcNAc", "result": -0.379}, {"measurement": "glycan array binding signal (z-score)", "setting": "Gal6S(b1-3)GlcNAc6S", "result": -0.376}, {"measurement": "glycan array binding signal (z-score)", "setting": "Gal6S(b1-4)Glc", "result": -0.365}, {"measurement": "glycan array binding signal (z-score)", "setting": "Gal6S(b1-4)Glc6S", "result": -0.365}, {"measurement": "glycan array binding signal (z-score)", "setting": "Gal6S(b1-4)GlcNAc", "result": -0.404}, {"measurement": "glycan array binding signal (z-score)", "setting": "Gal6S(b1-4)GlcNAc6S", "result": -0.421}, {"measurement": "glycan array binding signal (z-score)", "setting": "GalNAc(a1-3)Gal", "result": 2.89}, {"measurement": "glycan array binding signal (z-score)", "setting": "GalNAc(a1-3)GalNAc", "result": 2.55}, {"measurement": "glycan array binding signal (z-score)", "setting": "[1]", "result": 2.34}, {"measurement": "glycan array binding signal (z-score)", "setting": "[2]", "result": 2.78}, {"measurement": "glycan array binding signal (z-score)", "setting": "GalNAc(b1-3)Gal", "result": 2.73}, {"measurement": "glycan array binding signal (z-score)", "setting": "[3]", "result": 2.53}, {"measurement": "glycan array binding signal (z-score)", "setting": "[4]", "result": 2.61}, {"measurement": "glycan array binding signal (z-score)", "setting": "[5]", "result": 2.53}, {"measurement": "glycan array binding signal (z-score)", "setting": "GalNAc(b1-3)GalNAc", "result": -0.393}, {"measurement": "glycan array binding signal (z-score)", "setting": "GalNAc(b1-3)GlcNAc", "result": 2.86}, {"measurement": "glycan array binding signal (z-score)", "setting": "GalNAc(b1-4)Gal(b1-4)Glc", "result": -0.246}, {"measurement": "glycan array binding signal (z-score)", "setting": "GalNAc(b1-4)GlcNAc", "result": 2.74}, {"measurement": "glycan array binding signal (z-score)", "setting": "[6]", "result": 2.63}, {"measurement": "glycan array binding signal (z-score)", "setting": "[7]", "result": 2.7}, {"measurement": "glycan array binding signal (z-score)", "setting": "[8]", "result": 2.39}, {"measurement": "glycan array binding signal (z-score)", "setting": "GalNAc(b1-4)GlcNAc6S", "result": 2.79}, {"measurement": "glycan array binding signal (z-score)", "setting": "GalNAc(b1-6)GalNAc", "result": -0.458}, {"measurement": "glycan array binding signal (z-score)", "setting": "GalNAc3S(b1-4)GlcNAc", "result": -0.449}, {"measurement": "glycan array binding signal (z-score)", "setting": "GalNAc3S(b1-4)GlcNAc3S", "result": -0.445}, {"measurement": "glycan array binding signal (z-score)", "setting": "[9]", "result": -0.372}, {"measurement": "glycan array binding signal (z-score)", "setting": "GalNAc4S6S(b1-4)GlcNAc", "result": -0.44}, {"measurement": "glycan array binding signal (z-score)", "setting": "GalNAc6S(b1-4)GlcNAc", "result": 3}, {"measurement": "glycan array binding signal (z-score)", "setting": "Glc(a1-4)Glc", "result": -0.324}, {"measurement": "glycan array binding signal (z-score)", "setting": "[10]", "result": -0.419}, {"measurement": "glycan array binding signal (z-score)", "setting": "Glc(a1-6)Glc(a1-6)Glc", "result": -0.428}, {"measurement": "glycan array binding signal (z-score)", "setting": "[11]", "result": -0.438}, {"measurement": "glycan array binding signal (z-score)", "setting": "Glc(b1-4)Glc", "result": -0.381}]}]}
